To fix the notation:
B1: TEV protease; numbered along this chain (parent)
chain: MGESLFKGPRDYNPISSSICHLTNESDGHTTSLYGIGFGPFIITNKHLFRRNNGTLVVQSLHGVFKVKDTTTLQQHLVDGRDMIIIRMPKDFPPFPQKLKFREPQREERICLVTTNFQTKSMSSMVSDTSCTFPSGDGIFWKHWIQTKDGQCGSPLVSTRDGFIVGIHSASNFTNTNNYFTSVPKNFMELLTNQEAQQWVSGWRLNADSVLWGGHKVFMVKPEEPFQPVKEATQL

The assay covers variants of B1. In words: raw area under fraction-flipped curve 0-4 h after induction (AUC4h, not background-subtracted), DNA-recorder readout of cleavage of the substrate (dimensionless); higher = more cleavage of the substrate by the protease variant. As to conditions: temperature: 34 °C; time window: 0-4 h after rhamnose induction.

The list shows a part of the results. The full chains were built here from the parent and the listed change. Inactive controls read about 0.05.
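Further: Bxb1 expression induced with 0.2% (w/v) L-rhamnose at OD600 near 0.5, cultures sampled hourly, flipped fraction per protease–substrate barcode pair counted by paired-end Illumina sequencing.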

As for MGESLFKGPRDYNPISSSICHLTNESDGHTTSLYGIGFGPFIITNKHLFRRNNGTLVVQSLHGVFKVKDTTTVQQHLVDGRDMIIIRMPKDFPPFPQKLKFREPQREERICLVTTNFQTKSMSSMVSDTSCTFPSGDGIFWKHWIQTKDGQCGSPLVSTRDGFIVGIHSASNFTNTNNYFTSVPKNFMELLTNQEAQQWVSGWRLNADSVLWGGHKVFMVKPEEPFQPVKEATQL [L73V], the “area with substrate ENLDFQS” value was 0.0663, the “area with substrate ENLEFQS” value came out at 0.0535, the “area with substrate ENLFFQS” value was 0.0722 and the “area with substrate ENLGFQS” value was found to be 0.0579. Also, the “area with substrate ENLHFQS” value was 0.0726, the “area with substrate ENLKFQS” value turned out to be 0.0681, the “area with substrate ENLNFQS” value was determined as 0.0703 and the “area with substrate ENLPFQS” value stood at 0.0582. The “area with substrate ENLQFQS” value worked out at 0.0542, the “area with substrate ENLRFQS” value came to 0.061, the “area with substrate ENLVFQS” value came to 0.0708 and the “area with substrate ENLWFQS” value turned out to be 0.0298.

With MGESLFKGPRDYNPISSSICHLTNESDGHTTSLYGIGFGPFIITNKHLFRRNNGTLVVQSLHGVFKVKDTTTLSQHLVDGRDMIIIRMPKDFPPFPQKLKFREPQREERICLVTTNFQTKSMSSMVSDTSCTFPSGDGIFWKHWIQTKDGQCGSPLVSTRDGFIVGIHSASNFTNTNNYFTSVPKNFMELLTNQEAQQWVSGWRLNADSVLWGGHKVFMVKPEEPFQPVKEATQL [Q74S], the “area with substrate ENLDFQS” value was found to be 0.0564, the “area with substrate ENLFFQS” value amounted to 0.0858, the “area with substrate ENLHFQS” value came out at 0.0607 and the “area with substrate ENLLFQS” value amounted to 0.0751. The “area with substrate ENLQFQS” value came out at 0.0597, the “area with substrate ENLRFQS” value was 0.0719, the “area with substrate ENLSFQS” value worked out at 0.059 and the “area with substrate ENLWFQS” value was found to be 0.0697.

MGESLFKGPRDYNPISSSICHLTNESDGHTTSLYGIGFGPFIITNKHLFRRNNGTLVVQSLKGVFKVKDTTTLQQHLVDGRDMIIIRMPKDFPPFPQKLKFREPQREERICLVTTNFQTKSMSSMVSDTSCTFPSGDGIFWKHWIQTKDGQCGSPLVSTRDGFIVGIHSASNFTNTNNYFTSVPKNFMELLTNQEAQQWVSGWRLNADSVLWGGHKVFMVKPEEPFQPVKEATQL [H62K]: the “area with substrate ENLDFQS” value came out at 0.0463, the “area with substrate ENLFFQS” value is 0.0734, the “area with substrate ENLGFQS” value is 0.0462 and the “area with substrate ENLHFQS” value worked out at 0.0515. Further, the “area with substrate ENLIFQS” value was found to be 0.123, the “area with substrate ENLKFQS” value is 0.0801, the “area with substrate ENLLFQS” value amounted to 0.0722 and the “area with substrate ENLNFQS” value worked out at 0.086. Further, the “area with substrate ENLQFQS” value turned out to be 0.138 and the “area with substrate ENLVFQS” value was 0.0805.

Consider MGESLFKGPRDYNPISSSICHLTNESDGHTTSLYGIGFGPFIITNKHLFRRNNGQLVVQSLHGVFKVKDTTTLQQHLVDGRDMIIIRMPKDFPPFPQKLKFREPQREERICLVTTNFQTKSMSSMVSDTSCTFPSGDGIFWKHWIQTKDGQCGSPLVSTRDGFIVGIHSASNFTNTNNYFTSVPKNFMELLTNQEAQQWVSGWRLNADSVLWGGHKVFMVKPEEPFQPVKEATQL [T55Q], for which the “area with substrate ENLDFQS” value stood at 0.0523, the “area with substrate ENLFFQS” value worked out at 0.0673, the “area with substrate ENLGFQS” value turned out to be 0.061 and the “area with substrate ENLHFQS” value is 0.0691. The “area with substrate ENLIFQS” value came out at 0.0744, the “area with substrate ENLKFQS” value was 0.0769, the “area with substrate ENLMFQS” value stood at 0.0794 and the “area with substrate ENLPFQS” value came out at 0.0696. For the same variant, the “area with substrate ENLSFQS” value came out at 0.0619, the “area with substrate ENLVFQS” value was found to be 0.0956 and the “area with substrate ENLWFQS” value came to 0.0681.

As to MGESLFKGPRDYNPISSSICHLTNESDGHTTSLYGIGFGPFIITNNHLFRRNNGTLVVQSLHGVFKVKDTTTLQQHLVDGRDMIIIRMPKDFPPFPQKLKFREPQREERICLVTTNFQTKSMSSMVSDTSCTFPSGDGIFWKHWIQTKDGQCGSPLVSTRDGFIVGIHSASNFTNTNNYFTSVPKNFMELLTNQEAQQWVSGWRLNADSVLWGGHKVFMVKPEEPFQPVKEATQL [K46N], the “area with substrate ENLDFQS” value was 0.0556, the “area with substrate ENLFFQS” value was determined as 0.0468, the “area with substrate ENLLFQS” value is 0.0742 and the “area with substrate ENLQFQS” value is 0.0687. Besides, the “area with substrate ENLRFQS” value amounted to 0.064 and the “area with substrate ENLSFQS” value stood at 0.0602.

MGESLFKGPRDYNPISSSICHLTNESDGHTTSLLGIGFGPFIITNKHLFRRNNGTLVVQSLHGVFKVKDTTTLQQHLVDGRDMIIIRMPKDFPPFPQKLKFREPQREERICLVTTNFQTKSMSSMVSDTSCTFPSGDGIFWKHWIQTKDGQCGSPLVSTRDGFIVGIHSASNFTNTNNYFTSVPKNFMELLTNQEAQQWVSGWRLNADSVLWGGHKVFMVKPEEPFQPVKEATQL [Y34L]: the “area with substrate ENLDFQS” value was determined as 0.079, the “area with substrate ENLEFQS” value stood at 0.0505, the “area with substrate ENLFFQS” value amounted to 0.0597 and the “area with substrate ENLHFQS” value is 0.0641. The “area with substrate ENLLFQS” value stood at 0.0667, the “area with substrate ENLPFQS” value turned out to be 0.0695, the “area with substrate ENLRFQS” value was found to be 0.0693 and the “area with substrate ENLTFQS” value was 0.0581.

As for MGESLFKGPRDYNPISSSICHLTNESDGHTTSLYGIGFGPFIITNKHLFRRNNGTLVVQSLHGVFKVKDTTELQQHLVDGRDMIIIRMPKDFPPFPQKLKFREPQREERICLVTTNFQTKSMSSMVSDTSCTFPSGDGIFWKHWIQTKDGQCGSPLVSTRDGFIVGIHSASNFTNTNNYFTSVPKNFMELLTNQEAQQWVSGWRLNADSVLWGGHKVFMVKPEEPFQPVKEATQL [T72E], the “area with substrate ENLDFQS” value turned out to be 0.0703, the “area with substrate ENLEFQS” value was 0.0605, the “area with substrate ENLFFQS” value stood at 0.0809 and the “area with substrate ENLMFQS” value is 0.0693. Further, the “area with substrate ENLNFQS” value came out at 0.0708.

For the variant MGESLFKGPRDYNPISSSICHLTNESDGHTTSLYGIGFGPFIITNKHLFRRNNGTLVVQSLHGVFKVKDTTQLQQHLVDGRDMIIIRMPKDFPPFPQKLKFREPQREERICLVTTNFQTKSMSSMVSDTSCTFPSGDGIFWKHWIQTKDGQCGSPLVSTRDGFIVGIHSASNFTNTNNYFTSVPKNFMELLTNQEAQQWVSGWRLNADSVLWGGHKVFMVKPEEPFQPVKEATQL [T72Q], the “area with substrate ENLDFQS” value turned out to be 0.0649, the “area with substrate ENLFFQS” value is 0.0922, the “area with substrate ENLGFQS” value worked out at 0.0628 and the “area with substrate ENLHFQS” value worked out at 0.0645. Besides, the “area with substrate ENLKFQS” value came out at 0.0843, the “area with substrate ENLNFQS” value is 0.0741, the “area with substrate ENLRFQS” value is 0.0613 and the “area with substrate ENLVFQS” value turned out to be 0.0831.

MGESLFKGPRDYNPISSSICHLTNESDGHTTCLYGIGFGPFIITNKHLFRRNNGTLVVQSLHGVFKVKDTTTLQQHLVDGRDMIIIRMPKDFPPFPQKLKFREPQREERICLVTTNFQTKSMSSMVSDTSCTFPSGDGIFWKHWIQTKDGQCGSPLVSTRDGFIVGIHSASNFTNTNNYFTSVPKNFMELLTNQEAQQWVSGWRLNADSVLWGGHKVFMVKPEEPFQPVKEATQL [S32C]: the “area with substrate ENLDFQS” value is 0.0595, the “area with substrate ENLEFQS” value is 0.0623, the “area with substrate ENLFFQS” value was 0.0908 and the “area with substrate ENLGFQS” value stood at 0.0677. Moreover, the “area with substrate ENLHFQS” value turned out to be 0.0668, the “area with substrate ENLIFQS” value is 0.0898, the “area with substrate ENLKFQS” value stood at 0.0854 and the “area with substrate ENLMFQS” value stood at 0.0764. Besides, the “area with substrate ENLNFQS” value amounted to 0.0593, the “area with substrate ENLPFQS” value is 0.0538, the “area with substrate ENLQFQS” value worked out at 0.0717 and the “area with substrate ENLRFQS” value was determined as 0.0697. Moreover, the “area with substrate ENLSFQS” value amounted to 0.068 and the “area with substrate ENLVFQS” value amounted to 0.0798.

The values are drawn from the supplement of paper PMC12217912.
